# The campaign covered roughly 280,000 compounds. About 100 (0.036%) were called active. Inconclusive means that the source gave no clear call. Such entries were picked first, then a sample of the others. Calls follow the shape of the dose curve; as a rule, active = well fitted inhibition curve with a large enough effect in the signal ratio, with a control signal flat (not every such curve was filed as active); inconclusive = small, poorly fitted or top-dose-only effect, or effect the other way, or a change in a side signal; inactive = no such curve, though single readings can be large or run the other way; the % refers to the signal ratio. Where the call is inconclusive, the potency comes from a doubtful curve fit. A note “side channel” means that the fit belongs to a control or component signal, not to the main read-out.
# Molecular target: Muscleblind-like protein 1 (Homo sapiens) (UniProt Q9NR56)
# Assay: qHTS Assay for Inhibitors of MBNL1-poly(CUG) RNA binding
# Details: TR-FRET MBNL1-His/biotin-(CUG)12 binding, 665/545 ratio; series mostly up to 57.5 µM
# Procedure, shortened: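 Inhibition of protein-RNA binding appears as loss of TR-FRET between terbium anti-His antibody on MBNL1-His and streptavidin-XL665 on biotin-(CUG)12. Activity is normalized to buffer-only and uninhibited-complex controls.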
# Potency is read from the fitted curve at half-maximal effect; tags tell the direction and shape of the fitted curve or compound fluorescence and quenching.
# UniProt Q9NR56, sequence (Q9NR56 whole entry, looked up): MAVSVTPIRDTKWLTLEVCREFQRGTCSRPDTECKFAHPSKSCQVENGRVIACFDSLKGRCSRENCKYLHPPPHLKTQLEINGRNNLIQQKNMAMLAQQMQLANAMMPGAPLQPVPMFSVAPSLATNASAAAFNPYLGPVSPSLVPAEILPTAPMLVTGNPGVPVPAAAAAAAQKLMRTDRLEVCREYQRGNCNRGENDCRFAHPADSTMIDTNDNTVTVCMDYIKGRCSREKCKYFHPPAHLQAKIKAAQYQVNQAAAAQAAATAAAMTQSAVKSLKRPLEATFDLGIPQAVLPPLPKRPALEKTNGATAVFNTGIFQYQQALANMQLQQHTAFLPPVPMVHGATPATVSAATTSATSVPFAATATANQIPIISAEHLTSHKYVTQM
row,Compound,Potency
1,CCCCNc1nc2c(S(=O)(=O)c3ccccc3)nnn2c2ccccc12,"inconclusive: 20 µM [fluorescent, side channel, partial curve]"
2,CC(NC(=O)CCc1ccccc1)c1ccc2c(c1)OCO2 (stereo unspecified),inactive
3,Cc1csc(NC(=O)c2ccc(Cl)cc2[N+](=O)[O-])n1,"inconclusive: 14.1 µM [quencher, side channel, partial curve]"
4,N#C/C(=C\c1c(N2CCCCCC2)nc2ccccn2c1=O)C(N)=O,"inconclusive: 8.91 µM [quencher, side channel, partial curve]"
5,COc1ccc(N/C(=C(/C(Cl)=C(Cl)Cl)[N+](=O)[O-])n2nnc3ccccc32)cc1,"inconclusive: 20 µM [quencher, side channel, single point]"
6,CN(Cc1ccccc1)c1nc(N)c([N+](=O)[O-])c(NCc2ccccc2)n1,"inconclusive: 17.8 µM [fluorescent, side channel, partial curve, poor fit]"
7,CCSc1ncc(Cl)c(C(=O)Nc2ccc(S(=O)(=O)Nc3ncccn3)cc2)n1,inactive
8,CN(C)c1ccc(/C=N/NC(=O)CNC(=O)c2ccncc2)cc1,"inconclusive: 15.8 µM [quencher, partial curve]"
9,CC(=O)Nc1ccc2c3c(cccc13)C(=O)N(c1ccccc1)C2=O,"inconclusive: 2.82 µM [quencher, side channel, full curve]"
10,CC(=O)N1CCc2cc(Br)cc(S(=O)(=O)NCCN3CCCCC3C)c21 (stereo unspecified),"inconclusive: 39.8 µM [inhibitor, partial curve]"
11,CN(C)c1ccc(C(=O)C(O)c2ccccc2)cc1 (stereo unspecified),"inconclusive: 5.01 µM [quencher, side channel, single point]"
12,O=C(O)CC/C(=C\c1ccccc1[N+](=O)[O-])c1nc2ccccc2s1,"inconclusive: 35.5 µM [quencher, side channel, partial curve]"
13,C(=N/Nc1cc(N2CCOCC2)nc(N2CCOCC2)n1)/c1ccccc1,"inconclusive: 39.8 µM [quencher, side channel, single point]"
14,Cc1nnc(C)n1/N=C/c1ccc(-c2ccccc2Cl)o1,"inconclusive: 28.2 µM [quencher, side channel, single point]"
15,CCOn1c(=O)c(-c2ccccc2)[n+]([O-])c2ccccc21,"inconclusive: 14.1 µM [quencher, side channel, partial curve]"
16,NS(=O)(=O)c1ccc(O)c(NC(=O)c2ccc([N+](=O)[O-])cc2)c1,"inconclusive: 14.1 µM [quencher, side channel, partial curve]"
17,COc1cc(C(=O)/C=C/c2cccnc2)ccc1O,inactive
18,NC(=O)[C@@H]1CCCNc2c(I)cc([N+](=O)[O-])cc2C(=O)N[C@@H](Cc2ccccc2)C(=O)N[C@@H](Cc2cnc[nH]2)C(=O)N1,"inconclusive: 15.8 µM [quencher, partial curve]"
19,CC(Sc1ccsc1[N+](=O)[O-])C(=O)NCc1ccccc1 (stereo unspecified),"inconclusive: 39.8 µM [quencher, single point]"
20,Cc1ccsc1/C=N/NC(=O)c1ccc2nc[nH]c2c1,"inconclusive: 17.8 µM [quencher, side channel, partial curve]"
21,O=S(=O)(Nc1nc(-c2sccc2Cl)cs1)c1cc(Cl)ccc1Cl,inactive

row,Compound,Potency
1,COc1ccc(-c2cc(C(=O)Nc3c(C)n(C)n(-c4ccccc4)c3=O)c3ccccc3n2)cc1,"inconclusive: 28.2 µM [quencher, side channel, single point]"
2,CC(=O)Nc1ccc(SCc2ncc(-c3ccccc3)o2)cc1,inactive
3,O=C(N/N=C/C=C/c1ccco1)c1cccnc1,"inconclusive: 15.8 µM [quencher, side channel, partial curve]"
4,COC(=O)c1ccc(CNC(=O)COc2ccccc2Br)o1,"inconclusive: 3.55 µM [quencher, side channel, single point]"
5,Cc1ccc(C(=O)Nc2ccncc2)cc1[N+](=O)[O-],"inconclusive: 20 µM [quencher, side channel, partial curve]"
6,CC1N=C2c3ccccc3N=C(SCc3cc(=O)n4cc(Cl)ccc4n3)N2C1=O (stereo unspecified),"inconclusive: 2.24 µM [quencher, side channel, partial curve]"
7,Cn1cc(/C=C/c2cc[n+](C)cc2)c2cc(Cl)ccc21,"inconclusive: 10 µM [quencher, side channel, partial curve]"
8,Cc1ccc(S(=O)(=O)Nc2ccc(NC(=O)Nc3cccc(C(F)(F)F)c3)cc2)cc1,"inconclusive: 20 µM [fluorescent, side channel, single point]"
9,CCOC(=O)c1csc(NC(=O)CSc2nnnn2-c2ccc3c(c2)OCCO3)n1,inactive
10,Cc1nc(-c2ccccc2)sc1-c1ccn[nH]1,inactive
11,Cc1cc(C(=O)CSc2nc3ccccc3c(=O)[nH]2)c(C)n1C,"inconclusive: 8.91 µM [quencher, single point]"
12,CCOC(=O)c1cc2c(=O)n3ccccc3nc2n(CCCOC)c1=NC(=O)c1ccncc1,"inconclusive: 2.82 µM [quencher, side channel, full curve, poor fit]"
13,CC1=CC(=C2C(=O)c3ccccc3C2=O)C=C(C)O1,"inconclusive: 3.16 µM [quencher, side channel, full curve]"
14,OCCC1CN(Cc2cccc3nonc23)CCN1C1CCCCC1 (stereo unspecified),"inconclusive: 15.8 µM [quencher, side channel, partial curve]"
15,O=C1N=C(N2CCN(Cc3ccccc3)CC2)S/C1=C/c1cccs1,"inconclusive: 2.51 µM [quencher, side channel, full curve, poor fit]"
16,Cc1ccc(/C=C(\NC(=O)c2ccc(C)cc2)c2nc(=S)[nH][nH]2)cc1,"inconclusive: 20 µM [quencher, side channel, partial curve]"
17,Cc1ccc(Cc2ccc(C(=O)NNC(N)=S)o2)cc1,inactive
18,CC(=O)NCCC(=O)Nc1nc(-c2ccc3ccccc3c2)cs1,"inconclusive: 17.8 µM [quencher, side channel, partial curve]"
19,COc1ccc(C(=O)N/C(=C\c2cn(C)c3ccccc23)C(=O)NCCCN2CCOCC2)cc1,"inconclusive: 20 µM [quencher, side channel, partial curve]"
20,O=P(c1ccccc1)(c1ccccc1)c1cc(S(=O)(=O)O)ccc1O,inactive
21,COc1cc(C=O)ccc1OS(=O)(=O)c1ccc(NC(C)=O)cc1,inactive

row,Compound,Potency
1,CC(/C=C/c1ccco1)=N/NC(=O)c1ccccc1Cl,"inconclusive: 35.5 µM [quencher, side channel, single point]"
2,Cc1ccc(NC(=S)c2nc3ccccc3[nH]2)cc1,"inconclusive: 35.5 µM [quencher, side channel, single point]"
3,CN1CCN(c2ccc([N+](=O)[O-])c(Sc3nc4ccccc4[nH]3)c2)CC1,"inconclusive: 15.8 µM [quencher, side channel, partial curve]"
4,C=C(CC)C(=O)c1ccc(OCC(=O)O)c(Cl)c1Cl,"inconclusive: 44.7 µM [quencher, side channel, single point]"
5,O=C(COc1ccccc1[N+](=O)[O-])Nc1ccc(CN2CCOCC2)cc1,"inconclusive: 28.2 µM [quencher, side channel, partial curve]"
6,CN1CCN(c2ccc(C(=O)c3ccc(Br)cc3)cc2[N+](=O)[O-])CC1,"inconclusive: 14.1 µM [quencher, side channel, partial curve]"
7,O=C(Nc1ccccc1[N+](=O)[O-])c1cccnc1Cl,"inconclusive: 15.8 µM [quencher, side channel, partial curve]"
8,Cc1ccc(-c2ccc(=O)n(Cc3cccc(Br)c3)n2)cc1,inactive
9,O=C(N/N=C/c1c[nH]c2ccccc12)c1cccs1,"inconclusive: 20 µM [quencher, side channel, single point]"
10,CC(C)NC(=O)NC(=O)COC(=O)c1ccccc1O,inactive
11,CCC(C)NCCOc1ccc(C(C)(C)c2ccccc2)cc1 (stereo unspecified),inactive
12,Cc1onc(C(=O)NCCc2ccccc2)c1[N+](=O)[O-],"inconclusive: 39.8 µM [quencher, side channel, single point]"
13,Cc1nonc1C(=O)N/N=C/c1ccc([N+](=O)[O-])o1,"inconclusive: 11.2 µM [quencher, side channel, partial curve]"
14,c1coc(CN=C2NC(=NCc3ccco3)c3ccccc32)c1,"inconclusive: 25.1 µM [quencher, side channel, partial curve]"
15,Cc1ccc(S(=O)(=O)Cn2nnnc2C(CC(C)C)N2CCN(C)CC2)cc1 (stereo unspecified),"inconclusive: 79.4 µM [inhibitor, single point]"
16,CCCOc1ccccc1NC(=O)c1c(-c2ccccc2)noc1C,"inconclusive: 1 µM [quencher, side channel, single point]"
17,CC(NC(=O)COC(=O)c1cc(=O)[nH]c2ccccc12)c1ccccc1 (stereo unspecified),"inconclusive: 15.8 µM [quencher, side channel, partial curve]"
18,O=S(=O)(NC1CCCCC1)c1cccc2nsnc12,"inconclusive: 14.1 µM [quencher, side channel, partial curve]"
19,Cc1cccc(-n2c(O)c(C=NC3CCS(=O)(=O)C3)c3ccccc3c2=O)c1 (stereo unspecified),"inconclusive: 25.1 µM [quencher, side channel, partial curve]"
